Among all 350,000 compounds or so, about 9,900 (2.8%) were called active. This list was built around the results that the source calls inconclusive (neither active nor inactive); the mix of calls is not that of the screen. The call rests on the fitted dose curve; in most records, active means well fitted activation curve with a large enough effect; inconclusive means small, poorly fitted or top-dose-only effect; inactive means no such curve, though single readings can be large or run the other way. No potency is given beside an inconclusive call; the fits are too rough.
Experiment: A quantitative high throughput screen for small molecules that induce DNA re-replication in MCF 10a normal breast cells. Further: nearly all actives have a fitted effect of over 50% in size.
Conditions: MCF 10A DNA re-replication, Hoechst nuclear intensity, 48 h; series mostly up to 46.1 µM
Potency means the concentration at half of the fitted maximal effect; tags describe the fitted curve by direction and shape.

Row | SMILES | Potency
1 | O=S(=O)(c1ccc2c(c1)OCCO2)N1CCC(c2nc3ccc(Cl)cc3[nH]2)CC1 | inconclusive [activator, single point]
2 | Cc1cccc2nc(CSc3nc4[nH]ncc4c(=O)n3-c3ccccc3Cl)cc(=O)n12 | inactive
3 | CC1CN(Cc2ccc(C#N)cc2Cl)CC(C)O1 (centres undefined) | inactive
4 | Cc1ccc(NC(=O)c2sccc2-n2cccc2)c(C)c1 | inactive
5 | O=C(Oc1cccc2cccnc12)c1cccs1 | active: 5.17 µM
6 | CC(=O)Nc1ccccc1Oc1ccccc1 | inconclusive [activator, single point]
7 | C/C(=N\NC(=O)CSc1nc(C)cc(C)n1)c1cccc([N+](=O)[O-])c1 | inconclusive [activator, full curve, poor fit]
8 | Fc1cccc(CNCc2ccc3c(c2)OCO3)c1 | inconclusive [activator, single point]
9 | CCN(CC)CCCC(C)Nc1nccc2c(Cl)cccc12 (centres undefined) | inconclusive [activator, single point]
10 | COc1ccc(S(=O)(=O)N2CCc3ccccc32)cc1C(=O)O | inactive
11 | CCOC(=O)[C@H](CCc1ccccc1)N[C@@H](C)C(=O)N1CCC[C@H]1C(=O)O | inactive
12 | COc1ccccc1CCC(=O)Nc1nc2ccccc2[nH]1 | inconclusive [activator, single point]
13 | O=C(Nc1nc(-c2ccco2)c(-c2ccco2)s1)c1ccco1 | inconclusive [activator, single point]
14 | COc1ccc(CCN(C)c2ncnc3sccc23)cc1OC | active: 0.82 µM
15 | C=CCc1cccc([C@@H]2[C@@H](C)CC[C@H]3C(=O)N4[C@@H](c5cc(OC)c(OC)c(OC)c5)c5[nH]c6ccccc6c5C[C@H]4C(=O)N23)c1 | inconclusive [activator, partial curve, poor fit]
16 | CN(Cc1ccccc1)S(=O)(=O)c1ccc(Cl)c(C(=O)NCCCN2CCOCC2)c1 | inconclusive [activator, single point]
17 | Cn1c2c(c(=O)c3ccccc31)CCCC2 | inconclusive [activator, single point]
18 | Cc1cccc(NC(=O)/C(=C/c2cccc([N+](=O)[O-])c2)NC(=O)c2cccs2)c1 | inconclusive [activator, full curve, poor fit]
19 | Nc1nc(-c2sc3nc4c(cc3c2N)CCCC4)nc(N2CCOCC2)n1 | active: 6.51 µM
20 | COC(=O)Cn1c(=O)c2c(n(Cc3ccccc3)c1=O)N/C(=C/c1ccc(OC)cc1)C2=O | active: 18.4 µM
21 | Cc1ccc2c(c1)c1c(n2CC(O)CNC2CCCC2)CCCC1 (centres undefined) | inconclusive [activator, partial curve, poor fit]
22 | Oc1ccc(NC(=S)N=Nc2c(O)[nH]c3ccc(Br)cc23)cc1 | inconclusive [activator, single point]
23 | CCOC(=O)N1CCN(c2c(NCc3ccc(Cl)cc3)c(=O)c2=O)CC1 | active: 10.3 µM

Row | SMILES | Potency
24 | NC(=O)C1=C(c2ccccc2)c2ccccc2C1=O | inconclusive [activator, single point]
25 | CC1(C(=O)NC(=S)N(CCC#N)c2ccccc2)CC1(Cl)Cl (centres undefined) | inactive
26 | NS(=O)(=O)c1ccc(NC(=O)COC(=O)C2CC(=O)N(Cc3ccccc3)C2)cc1 (centres undefined) | inactive
27 | Cc1ccc(-c2cn(CCC(=O)O)c(-c3ccc(Cl)nc3)n2)cc1 | inconclusive [activator, full curve, poor fit]
28 | N#Cc1c(N)n(CCOC(=O)c2cccc(Br)c2)c2nc3ccccc3nc12 | inconclusive [activator, single point]
29 | C=C(C)C(=O)Nc1nnc(-c2cccs2)s1 | active: 10.3 µM
30 | O=C(CSC1=NCCN1)Nc1cccc([N+](=O)[O-])c1 | inconclusive [activator, single point]
31 | O=C(/C=C/c1c(F)cccc1Cl)Nc1nc2ccccc2[nH]1 | inconclusive [activator, partial curve, poor fit]
32 | CCOc1ccccc1C(=O)N/N=C/c1coc2ccc(Cl)cc2c1=O | active: 14.6 µM
33 | CCc1ccccc1NC(=O)CN1CCN(C(=O)c2cccc(-n3cnnn3)c2)CC1 | inactive
34 | Cc1ccccc1NC(=O)CSc1nc2ccc(Nc3nc(N4CCOCC4)nc(N4CCOCC4)n3)cc2s1 | inconclusive [activator, partial curve, poor fit]
35 | CN(C)S(=O)(=O)c1ccc(C(=O)N2CCC(c3nc4ccccc4o3)CC2)cc1 | inactive
36 | O=C(COC(=O)/C=C/C(=O)OCC(=O)NC12CC3CC(CC(C3)C1)C2)NC12CC3CC(CC(C3)C1)C2 | active: 5.17 µM
37 | CCOC(=O)c1c(CN(C)C)n(C)c2c(O)c(N=NC(N)=O)c3ccc(Br)cc3c12 | inconclusive [activator, partial curve, poor fit]
38 | CC(=O)NC(c1ccc2ccccc2c1)c1ccc2cccnc2c1O (centres undefined) | inconclusive [activator, single point]
39 | COC(=O)CCC[C@H]1CC2(C[C@H](CCCO[Si](C)(C)C(C)(C)C)N1C(=O)OC(C)(C)C)OCCO2 | inconclusive [activator, partial curve, poor fit]
40 | CCOC(=O)/C(=C\c1ccc(C)cc1)NC(=O)c1ccccc1 | inactive
41 | COc1ccc(C(CCNCc2ccc(OC(C)C)cc2)c2ccccc2OC)cc1 (centres undefined) | inconclusive [activator, single point]
42 | COc1ccc(-c2nn(-c3ccccc3)cc2/C=N/N=C(N)N)cc1OC | inconclusive [activator, single point]
43 | COc1ccccc1NC(=O)c1csc2c1CCC(C)C2 (centres undefined) | inconclusive [activator, partial curve, poor fit]
44 | CC(C)=CCCC(C)CN1CCC(n2nccc2NC(=O)C2CCCC2)CC1 (centres undefined) | inactive
45 | CCN(CC)c1ccc(C(=O)NNC(=O)CCNC(=O)c2ccccc2)cc1 | inactive
46 | Cc1ccc(C2CC(=O)C=C(Nc3ccc(Cl)cc3)C2)cc1 (centres undefined) | inconclusive [activator, partial curve, poor fit]

Row | SMILES | Potency
47 | O=C(COc1ccc(/C=N/NC(=O)c2cc3ccccc3o2)cc1Br)Nc1ccccc1 | inconclusive [activator, full curve, poor fit]
48 | Cc1cc(C)cc(OCC(=O)NCc2nc(-c3ccccc3)no2)c1 | inconclusive [activator, single point]
49 | NS(=O)(=O)c1ccc(N2N=C(c3ccccc3)CC2c2cccc(Br)c2)cc1 (centres undefined) | active: 5.17 µM
50 | O=C(/C=C/c1ccccc1)Nc1ccc(Cl)cn1 | inconclusive [activator, partial curve, poor fit]
51 | CC1=C(C(=O)Nc2cc(C)ccn2)C(c2ccc(C)cc2)C2=C(CCCC2=O)N1 (centres undefined) | inactive
52 | O=C(NCc1ccccc1C(F)(F)F)C1CC(c2ccc(C(F)(F)F)cc2)=NO1 (centres undefined) | inconclusive [activator, single point]
53 | Cc1ccc(Cl)cc1-n1c(SCC(=O)NCCC2=CCCCC2)nc2n[nH]c(C)c2c1=N | inconclusive [activator, single point]
54 | O=C(NNC(=S)Nc1cccc(C(F)(F)F)c1)c1ccc(Cl)cc1Cl | active: 13 µM
55 | O=c1ccsc2ccccc12 | inactive
56 | CC(=O)c1ccc2c3c(cc(C)c2c1)CCCC3 | active: 20.6 µM
57 | COc1ccccc1CNC(=O)[C@@H](NC(=O)C1CCN(C(=O)[C@@H]2CCCN2C(=O)OC(C)(C)C)CC1)C(C)C | inactive
58 | O=S(=O)(NCC(Nc1ccc(Cl)cc1)c1ccccc1)c1ccc(Cl)cc1 (centres undefined) | active: 3.26 µM
59 | COc1cccc(/C=C2\SC(=S)N(CCCC(=O)N3CCCC3)C2=O)c1 | inconclusive [activator, single point]
60 | Cc1nn(-c2ccccc2)c(C)c1/C=C/C(=O)OCC(=O)Nc1ncc(C(F)(F)F)cc1Cl | inconclusive [activator, single point]
61 | CCc1sc(N(C(=O)Cc2ccccc2)c2cccc(F)c2)nc1-c1ccc(C)cc1 | inconclusive [activator, partial curve]
62 | CC(=O)Nc1cccc(-c2cc(C)c3cc4c(cc3n2)OCO4)c1 | inactive
63 | Cc1ccc2c(c1)C1(C(=O)N2)N2CCCC2C(C(=O)c2ccc3ccccc3c2)C12C(=O)Nc1ccccc12 (centres undefined) | inconclusive [activator, single point]
64 | CC(OC(=O)Cn1ccccc1=O)C(=O)Nc1cc(Cl)cc(Cl)c1 (centres undefined) | inactive
65 | Cc1ccc(/C=N/c2sc(Cc3ccccc3)c(C)c2C(N)=O)o1 | inconclusive [activator, single point]
66 | CCc1ccc(NC(=O)CCNS(=O)(=O)c2cccc3nsnc23)cc1 | inconclusive [activator, partial curve, poor fit]
67 | COc1ccc(C(=O)Nc2ccc(C(=O)Nc3cccnc3)cc2)cc1 | inconclusive [activator, single point]
68 | CCN1CCN(Cc2ccc(NC(=O)c3cc(NC(=O)c4ccno4)cc(OC)c3)cc2C(F)(F)F)CC1 | inconclusive [activator, partial curve, poor fit]
69 | CC1CN(C(=O)CCC(=O)N2CCCCC2)c2cc(Cl)ccc2O1 (centres undefined) | inconclusive [activator, single point]
